Hit rate of the full screen: of about 410,000 compounds, about 6,400 (1.6%) were called active. The inconclusive results got no clear call from the source; some entries with a clear call stand among them for comparison. The call rests on the fitted dose curve; in most records, active means well fitted inhibition curve with a large enough effect; inconclusive means small, poorly fitted or top-dose-only effect; inactive means no such curve, though single readings can be large or run the other way. Potencies of inconclusive entries are left out as doubtful fits.
The compounds below were run against Glucagon-like peptide 1 receptor (Homo sapiens) (UniProt P43220) (assay: qHTS of GLP-1 Receptor Inverse Agonists (Inhibition Mode)). Conditions: HEK293 GLP-1R CRE-luciferase, luminescence, 24 h, GLP-1R form is constitutively active; series mostly up to 38.3 µM.
Chain of UniProt P43220 (P43220 whole entry, looked up): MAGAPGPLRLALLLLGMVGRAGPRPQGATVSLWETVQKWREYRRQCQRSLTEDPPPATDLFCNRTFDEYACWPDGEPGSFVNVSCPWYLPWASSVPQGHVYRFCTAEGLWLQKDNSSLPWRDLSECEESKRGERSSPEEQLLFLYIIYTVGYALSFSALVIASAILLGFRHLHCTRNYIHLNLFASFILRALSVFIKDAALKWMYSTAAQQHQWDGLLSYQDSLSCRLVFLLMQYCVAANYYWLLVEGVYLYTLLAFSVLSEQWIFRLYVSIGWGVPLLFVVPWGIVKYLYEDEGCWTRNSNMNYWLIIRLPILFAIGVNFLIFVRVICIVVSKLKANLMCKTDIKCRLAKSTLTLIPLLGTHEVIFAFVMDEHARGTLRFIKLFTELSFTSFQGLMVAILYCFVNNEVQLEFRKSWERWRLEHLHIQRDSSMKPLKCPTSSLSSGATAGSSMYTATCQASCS
How it was run: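 Stable HEK293 clone (constitutively active GLP-1R + cAMP-response luciferase); 200 cells/uL plated, 12 h pre-culture, compound 24 hr, 37 deg C/5% CO2; detection reagent 12 min RT; luminescence.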
Further: nearly all actives have a fitted effect of over 55% in size.
Potency means the concentration at half of the fitted maximal effect; tags describe the fitted curve by direction and shape.

Which Potency does the source give for `CC(OC(=O)C1=COCCO1)C(=O)Nc1cc(S(=O)(=O)N2CCCCC2)ccc1Cl` (centres undefined) here?
Its Potency is “inactive”.

Which Potency does the source give for `CCN(Cc1ccccc1)Cc1c(O)ccc2oc(C)c(C(=O)Nc3ccc(C)cc3C)c12` here?
Its Potency is inconclusive [inhibitor, single point].

Which Potency does the source give for `O=c1cc(NCCc2ccccc2)c2ccccc2o1` here?
The Potency was inconclusive [inhibitor, single point].

Which Potency does the source give for `CC(C)C(NS(=O)(=O)c1cccc(C(F)(F)F)c1)C(=O)N1CCc2ccccc2C1` (centres undefined) here?
Its Potency is inconclusive [inhibitor, partial curve, poor fit].

With `CCc1cc2c(CN(C)Cc3ccccc3F)cc(=O)oc2cc1O` as the compound, how does the Potency read?
Its Potency is inconclusive [inhibitor, partial curve, poor fit].

How did the Potency turn out when `COc1c(Cl)cc(Cl)cc1CNc1ccc(S(N)(=O)=O)cc1` was run?
The Potency was inconclusive [inhibitor, single point].

`Nc1nnc(SCc2ccccc2F)s1` was tested. Which Potency did it give?
Its Potency is inconclusive [inhibitor, single point].

`COc1cccc(/C=C2/CCC(CN(C)C)C2=O)c1` (centres undefined) was tested. Which Potency did it give?
Its Potency is inconclusive [inhibitor, single point].

`Cc1cc(Br)ccc1NC(=O)c1sc2nc3n(c(=O)c2c1C)CCCC3` was tested. Which Potency did it give?
Its Potency is “inactive”.

With `C#CCN(C[C@@H]1[C@@H](OC(=O)NCc2ccccc2)[C@@H](OC(=O)NCc2ccccc2)Cn2c(=O)n(CCCCCC)c(=O)n21)S(=O)(=O)c1ccc(C)cc1` as the compound, how does the Potency read?
Its Potency is inconclusive [inhibitor, single point].

For `CN(C)CCCNc1nc(-c2ccccc2)c2c(c1C#N)CC(C)(C)OC2`, which Potency is on record?
Its Potency is inconclusive [inhibitor, partial curve, poor fit].

`CCOC(=O)N1N=C(c2ccc(OC)cc2)CC1(O)C(F)(F)F` (centres undefined) was tested. Which Potency did it give?
The Potency was inconclusive [inhibitor, partial curve, poor fit].

`CCOC(=O)COc1ccc2ccccc2c1/C=C/[N+](=O)[O-]` was tested. Which Potency did it give?
Its Potency is inconclusive [inhibitor, single point].

Which Potency does the source give for `Cc1ccnc(NC(=O)Cc2ccc(-c3ccccc3)cc2)c1` here?
Its Potency is inconclusive [inhibitor, partial curve, poor fit].

How did the Potency turn out when `COCCN(Cc1nc2ccccc2c(=O)[nH]1)C(=O)COc1cccc(C(C)=O)c1` was run?
Its Potency is inconclusive [inhibitor, single point].

For `O=C(CC(c1ccccc1)c1cc(Cl)ccc1O)N1CCCC1` (centres undefined), which Potency is on record?
The Potency was inconclusive [inhibitor, single point].

For `CC(C)(C)c1ccc(C(O)c2ncc(-c3ccc4ccccc4c3)[nH]2)cc1` (centres undefined), which Potency is on record?
Its Potency is inconclusive [inhibitor, single point].

For `O=S1(=O)c2ccccc2N(Cc2ccc(Cl)cc2)c2ccccc21`, which Potency is on record?
Its Potency is inconclusive [inhibitor, partial curve, poor fit].

`COc1ccc2c(c1)c(=O)c(C(=O)c1ccc(F)cc1)cn2CC(=O)Nc1ccc2c(c1)OCO2` was tested. Which Potency did it give?
Its Potency is “inactive”.

For `CC1(c2ccccc2)NC(=O)N(CC(=O)Nc2ccc3c(c2)CCC3)C1=O` (centres undefined), which Potency is on record?
Its Potency is active: 10 µM.

For `Cc1nc2ccc(NC(=O)c3ccc(S(=O)(=O)N(C)c4ccccc4)cc3)cc2s1`, which Potency is on record?
Its Potency is inconclusive [inhibitor, full curve, poor fit].

`Cc1nn(Cc2ccc(Cl)c(Cl)c2)c(C)c1NC(=O)c1sc2ccccc2c1Cl` was tested. Which Potency did it give?
The Potency was inconclusive [inhibitor, partial curve, poor fit].

With `COC(=O)c1c(N2C(=O)[C@H]3[C@@H](C2=O)[C@]2(C(=O)Nc4c2ccc(C)c4C)N2CCC[C@@H]32)sc(C)c1C` as the compound, how does the Potency read?
Its Potency is inconclusive [inhibitor, single point].

Which Potency does the source give for `CCc1nnc(NC(=O)c2nc(SCc3ccccc3F)ncc2Cl)s1` here?
Its Potency is “inactive”.

`O=C(Nc1cc(Cl)cc(Cl)c1)C(NCC1CCCO1)c1ccccc1` (centres undefined) was tested. Which Potency did it give?
Its Potency is active: 5.01 µM.

For `N#Cc1ccc(C(=O)Nc2cc(-c3ccccc3)nn2-c2ccccc2)cc1`, which Potency is on record?
Its Potency is inconclusive [inhibitor, partial curve].

For `CSCC(=O)NCC1(N(C)Cc2ccccc2)Cc2ccccc2C1`, which Potency is on record?
Its Potency is inconclusive [inhibitor, partial curve, poor fit].

With `COc1ccc(/C=C2\SC(=S)N(CCC(=O)N3CCCCC3CCO)C2=O)cc1` (centres undefined) as the compound, how does the Potency read?
The Potency was inconclusive [inhibitor, single point].

How did the Potency turn out when `Cc1ccc2oc(C(=O)NCc3ccc4c(c3)OCO4)c(C)c2c1` was run?
Its Potency is inconclusive [inhibitor, single point].

Which Potency does the source give for `O=C(/C=C/c1ccc2c(c1)OCO2)Nc1nncs1` here?
Its Potency is inconclusive [inhibitor, full curve, poor fit].

`Cc1ccccc1-c1cc2nc(NCc3ccc4occc4c3)n(C)c(=O)c2s1` was tested. Which Potency did it give?
Its Potency is inconclusive [inhibitor, single point].

Which Potency does the source give for `CCOc1ccc(NC(=O)c2cnsn2)cc1` here?
Its Potency is inconclusive [inhibitor, single point].

Which Potency does the source give for `COc1ccc(C2CC(c3ccccc3)=NN2S(=O)(=O)c2ccccc2)cc1` (centres undefined) here?
Its Potency is inconclusive [inhibitor, single point].

`Cc1ccc2nc(-c3cccc(NS(C)(=O)=O)c3)cc(-c3ccccc3)c2c1` was tested. Which Potency did it give?
Its Potency is inconclusive [inhibitor, partial curve, poor fit].

Which Potency does the source give for `Cc1ccc(-c2nnc(Nc3ccc4c(c3)OCO4)c3ccccc23)cc1S(N)(=O)=O` here?
The Potency was inconclusive [inhibitor, single point].

`COc1ccc(Nc2c(-c3ccc(C)o3)nc3cc(C)ccn23)cc1` was tested. Which Potency did it give?
Its Potency is inconclusive [inhibitor, single point].

How did the Potency turn out when `Cc1ccc2oc(-c3ccc(C)c(NC(=O)/C=C/c4ccc(Cl)cc4)c3)nc2c1` was run?
The Potency was “inactive”.

`O=C(O)CS(=O)CC(=O)Nc1cccc(C(F)(F)F)c1` (centres undefined) was tested. Which Potency did it give?
The Potency was inconclusive [inhibitor, partial curve, poor fit].

`Cc1ccc2[nH]c3c(=O)n(CC(=O)N(CCN(C)C)Cc4ccccc4)ncc3c2c1` was tested. Which Potency did it give?
The Potency was “inactive”.

Source: PubChem BioAssay AID624417 (National Center for Advancing Translational Sciences (NCATS), 2012)
